# Assay results reported in the supplement of paper PMC9135407.
# Several values for one entry are separate records, joined by “and”; a condition that tells them apart may be missing. Equal values may be shown once. Where a name gives a salt, the structure may show the parent alone. The whole screen tested about 5,800 compounds, of which about 620 (11%) showed activity.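 The calls were made as follows: active = score above a cut-off or among the top three wells of a plate; in these data no inactive exceeds 0.85.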 The entries are a selection whose mix differs from that of the whole data set.
# System: primary human hepatic stellate cells (donor 1)
# Assay: scaled lipid accumulation score (0 = DMSO-like, 1 = nortriptyline-like); higher = stronger HSC inactivation (lipid re-accumulation), active = hit call of the paper
# Settings: 48 h
# [1] = library stock concentration: 1 mM
# [2] = library stock concentration: 3.33 mM
# [3] = library stock concentration: 10 mM
# [4] = library stock concentration: 80 uM
# [5] = library stock concentration: 400 uM
# [6] = library stock concentration: 2 mM
# [7] = library stock concentration: 6.4 mM
smiles,measurement,setting,value
CCCCC[C@@](C)(O)/C=C/[C@H]1C(=O)C[C@H](O)[C@@H]1C/C=C\CCCC(=O)O [15(R)-15-methyl Prostaglandin D2],scaled lipid accumulation score,[1],inactive: ≤ 0
"CCCCC(C)(C)[C@H](O)/C=C/[C@H]1C=CC(=O)[C@@H]1CCCCCCC(=O)O [16,16-dimethyl Prostaglandin A1]",scaled lipid accumulation score,[1],inactive: ≤ 0
CCCCC/C=C\C/C=C\C/C=C\C/C=C\CCCC(=O)OC(COCCCCCCCCCCCCCCCC)COP(=O)([O-])OCC[N+](C)(C)C (configuration not stated) [Arachidonoyl PAF C-16],scaled lipid accumulation score,[1],inactive: ≤ 0
CC(O)Cn1cnc2c1c(=O)n(C)c(=O)n2C (configuration not stated) [Proxyphylline],scaled lipid accumulation score,,inactive: ≤ 0
c1([C@]2(C(=O)OC)c3c(c4c(cccc4)[nH]3)CN(CC5C2)CC(CC)=C5)cc6c(N(C)[C@]7([H])[C@]6(CC8)[C@]([H])(N89)[C@@](CC)(C=CC9)[C@@H](OC(=O)C)[C@]7(O)C(=O)OC)cc1OC.C(=O)(O)[C@H](O)[C@@H](O)C(=O)O.C(=O)(O)[C@H](O) (some centres not stated) [Vinorelbine Tartrate],scaled lipid accumulation score,[2],active: 1.26
same,scaled lipid accumulation score,[3],active: 0.863
CCC1(C)OC(=O)N(C)C1=O (configuration not stated),scaled lipid accumulation score,[3],inactive: ≤ 0
NC(=O)CCCCn1ccc(NC(N)=NCC(F)(F)F)n1,scaled lipid accumulation score,[3],inactive: ≤ 0
N[C@@H](Cc1c[nH]c2ccccc12)C(=O)O [L-Tryptophan],scaled lipid accumulation score,[3],inactive: ≤ 0
N[C@@H](Cc1c[nH]c2ccccc12)C(=O)O [Tryptophan],scaled lipid accumulation score,[3],inactive: ≤ 0
O=C(OOC(=O)c1ccccc1)c1ccccc1 [Benzoyl peroxide],scaled lipid accumulation score,library stock concentration: 8.3 mM,inactive: ≤ 0
"Nc1cc(=O)[nH]c(N)n1 [2,4-Diamino-6-pyrimidinone]",scaled lipid accumulation score,[3],inactive: 0.233
NC(=O)CCCCC1CCSS1 (configuration not stated),scaled lipid accumulation score,[3],inactive: ≤ 0
Br.CN1CCC[C@@H]1Cc1c[nH]c2ccc(CCS(=O)(=O)c3ccccc3)cc12 [Eletriptan hydrobromide],scaled lipid accumulation score,[3],active: 0.912
CCCCCCCC/C=C\CCCCCCCC(N)=O [Oleamide],scaled lipid accumulation score,[1],inactive: ≤ 0
same,scaled lipid accumulation score,[3],inactive: ≤ 0
"CCCCCCCC/C=C\CCCCCCCC(N)=O [9,10-Octadecenoamide]",scaled lipid accumulation score,[1],inactive: ≤ -0.021
C=C(C)[C@H]1CC=C(C)CC1,scaled lipid accumulation score,[3],inactive: ≤ 0
COC1(C2=NCCN2)COc2ccccc2O1 (configuration not stated),scaled lipid accumulation score,[3],inactive: ≤ 0 and inactive: ≤ -0.006
Cc1ncc(-c2ccnc(Nc3ccc(S(C)(=O)=O)cc3)n2)n1C(C)C,scaled lipid accumulation score,[4],inactive: 0.708
same,scaled lipid accumulation score,[5],inactive: 0.763
same,scaled lipid accumulation score,[6],inactive: 0.527
same,scaled lipid accumulation score,[2],inactive: 0.078
same,scaled lipid accumulation score,[3],inactive: 0.329 and inactive: 0.334
NS(=O)(=O)c1cc2c(cc1C(F)(F)F)NCNS2(=O)=O [Hydroflumethiazide],scaled lipid accumulation score,,inactive: 0.014
same,scaled lipid accumulation score,library stock concentration: 6 mM,inactive: ≤ -0.001
same,scaled lipid accumulation score,[3],inactive: ≤ 0
CC(C)NC[C@@H](O)COc1ccc(CC(N)=O)cc1 [(R)-(+)-Atenolol],scaled lipid accumulation score,,inactive: ≤ 0
OC[C@H]1O[C@@H](n2cnc3c(N[C@H]4CCC[C@@H]4O)ncnc32)[C@H](O)[C@@H]1O,scaled lipid accumulation score,[3],inactive: ≤ 0 and inactive: ≤ -0.006
COc1ncnc(NS(=O)(=O)c2ccc(N)cc2)c1OC [Sulfadoxine],scaled lipid accumulation score,,inactive: ≤ 0
same,scaled lipid accumulation score,[7],inactive: ≤ 0 and inactive: 0.001
CC(=O)OCC(=O)[C@@]1(O)[C@H](C)C[C@H]2[C@@H]3CCC4=CC(=O)C=C[C@]4(C)[C@@]3(F)[C@@H](O)C[C@@]21C [Dexamethasone acetate],scaled lipid accumulation score,,inactive: 0.043
same,scaled lipid accumulation score,[3],inactive: ≤ 0
c1ccc(C(O[C@@H]2CCCN(CCc3ccc4c(c3)OCO4)C2)c2ccccc2)cc1 [Zamifenacin fumarate],scaled lipid accumulation score,[3],inactive: 0.194
COc1c(N2C[C@@H]3CCCN[C@@H]3C2)c(F)cc2c(=O)c(C(=O)O)cn(C3CC3)c12 [Moxifloxacin hydrochloride],scaled lipid accumulation score,[3],inactive: 0.069
COc1c(N2C[C@@H]3CCCN[C@@H]3C2)c(F)cc2c(=O)c(C(=O)O)cn(C3CC3)c12,scaled lipid accumulation score,[3],inactive: ≤ 0
COc1c(N2C[C@@H]3CCCN[C@@H]3C2)c(F)cc2c(=O)c(C(=O)O)cn(C3CC3)c12 [Moxifloxacin HCl],scaled lipid accumulation score,[2],inactive: ≤ 0
same,scaled lipid accumulation score,[3],inactive: ≤ 0
CN1CCN(CC/C=C2\c3ccccc3Sc3ccc(S(=O)(=O)N(C)C)cc32)CC1 [Thiothixene],scaled lipid accumulation score,library stock concentration: 4.5 mM,active: 0.856
COc1ccc(C(=O)c2ccccc2)c(O)c1 [Oxybenzone],scaled lipid accumulation score,,inactive: ≤ 0
same,scaled lipid accumulation score,library stock concentration: 8.8 mM,inactive: 0.019
same,scaled lipid accumulation score,[3],inactive: 0.015
CCCCCCCC(=O)CC[C@@H]1[C@@H](C/C=C\CCCC(=O)O)[C@@H](O)C[C@H]1O [Unoprostone],scaled lipid accumulation score,[1],inactive: ≤ 0
COc1ccc(C(=O)CC(=O)c2ccc(C(C)(C)C)cc2)cc1 [Avobenzone],scaled lipid accumulation score,[2],inactive: ≤ 0
same,scaled lipid accumulation score,[7],inactive: ≤ 0
same,scaled lipid accumulation score,[3],inactive: ≤ 0 and inactive: 0.001
Cc1ccccc1C(=O)c1ccc(Nc2ccc(Br)cc2N)cc1Cl,scaled lipid accumulation score,[3],inactive: ≤ -0.001
NCCSSCCN [Cystamine dihydrochloride],scaled lipid accumulation score,[3],inactive: ≤ 0 and inactive: ≤ -0.024
Cc1cc(NC2CCCCC2)nc(-n2nc(C)cc2C)n1,scaled lipid accumulation score,[3],inactive: ≤ -0.03
Nc1nc2c(ncn2COCCO)c(=O)[nH]1 [Acyclovir],scaled lipid accumulation score,,inactive: 0.051
Nc1nc2c(ncn2COCCO)c(=O)[nH]1 [Aciclovir],scaled lipid accumulation score,[2],inactive: 0.044
same,scaled lipid accumulation score,[3],inactive: ≤ 0
Nc1nc2c(ncn2COCCO)c(=O)[nH]1 [Acycloguanosine],scaled lipid accumulation score,library stock concentration: 8.9 mM,inactive: 0.026
"CCCCC(C)(C)[C@H](O)/C=C/[C@H]1[C@H](O)CC(=O)[C@@H]1CC(=O)CCCCC(=O)O [16,16-dimethyl-6-keto Prostaglandin E1]",scaled lipid accumulation score,[1],inactive: ≤ 0
Oc1ccc(-c2c(-c3ccccc3)nn3c(C(F)(F)F)cc(C(F)(F)F)nc23)cc1,scaled lipid accumulation score,[3],inactive: ≤ -0.001
NC1CC1c1ccc(-c2cccc(O)c2)cc1 (configuration not stated),scaled lipid accumulation score,[2],inactive: 0.13
same,scaled lipid accumulation score,[3],inactive: 0.625
CCCCCN(CCCCC)C(=O)C(CCC(=O)O)NC(=O)c1ccc(Cl)c(Cl)c1 (configuration not stated) [Lorglumide sodium],scaled lipid accumulation score,[3],inactive: 0.002
CCCCCN(CCCCC)C(=O)C(CCC(=O)O)NC(=O)c1ccc(Cl)c(Cl)c1 (configuration not stated) [Lorglumide sodium salt],scaled lipid accumulation score,,inactive: ≤ 0
CCCCCN(CCCCC)C(=O)C(CCC(=O)O)NC(=O)c1ccc(Cl)c(Cl)c1 (configuration not stated) [Lorglumide],scaled lipid accumulation score,library stock concentration: 4.4 mM,inactive: ≤ 0
COc1ccc2[nH]c([S@@+]([O-])Cc3ncc(C)c(OC)c3C)nc2c1 [Esomeprazole Sodium],scaled lipid accumulation score,[2],inactive: ≤ 0
same,scaled lipid accumulation score,[3],inactive: ≤ 0
COc1ccc2[nH]c([S@@+]([O-])Cc3ncc(C)c(OC)c3C)nc2c1 [Esomeprazole potassium],scaled lipid accumulation score,library stock concentration: 5.8 mM,inactive: 0.049
COc1ccc2[nH]c([S@@+]([O-])Cc3ncc(C)c(OC)c3C)nc2c1 [Esomeprazole magnesium dihydrate],scaled lipid accumulation score,[3],inactive: ≤ -0.07
CC(C)(C)NC(=O)[C@@H]1C[C@@H]2CCCC[C@@H]2CN1C[C@@H](O)[C@H](Cc1ccccc1)NC(=O)[C@H](CC(N)=O)NC(=O)c1ccc2ccccc2n1 [Saquinavir mesylate],scaled lipid accumulation score,,inactive: ≤ 0
CC(C)(C)NC(=O)[C@@H]1C[C@@H]2CCCC[C@@H]2CN1C[C@@H](O)[C@H](Cc1ccccc1)NC(=O)[C@H](CC(N)=O)NC(=O)c1ccc2ccccc2n1,scaled lipid accumulation score,[3],inactive: 0.266
"COc1cc2ncnc(Nc3ccc(F)c(Cl)c3)c2cc1OCCCN1CCOCC1 [Gefitinib (ZD1839, Iressa) (2 mM)]",scaled lipid accumulation score,[6],active: 0.864
"COc1cc2ncnc(Nc3ccc(F)c(Cl)c3)c2cc1OCCCN1CCOCC1 [Gefitinib (ZD1839, Iressa) (10 mM)]",scaled lipid accumulation score,[3],active: 0.94
CS(=O)(=O)N1CCN(Cc2cc3nc(-c4cccc5[nH]ncc45)nc(N4CCOCC4)c3s2)CC1,scaled lipid accumulation score,[4],inactive: ≤ 0
same,scaled lipid accumulation score,[5],inactive: ≤ 0 and inactive: ≤ -0.005
same,scaled lipid accumulation score,[6],inactive: 0.08 and inactive: ≤ -0.005
same,scaled lipid accumulation score,[2],inactive: 0.122
same,scaled lipid accumulation score,[3],inactive: 0.315 and inactive: 0.448 and inactive: 0.49
"CNC(=O)c1cc(Oc2ccc(NC(=O)Nc3ccc(Cl)c(C(F)(F)F)c3)cc2)ccn1 [Sorafenib (Nexavar, BAY43-9006) (10 mM)]",scaled lipid accumulation score,[3],active: 1.21
CCCCN(CCCC)CCC(O)c1cc2c(Cl)cc(Cl)cc2c2cc(C(F)(F)F)ccc12 (configuration not stated) [Halofantrine hydrochloride],scaled lipid accumulation score,,inactive: 0.266
NC(CCCP(=O)(O)O)C(=O)O (stereo not drawn) [D(-)-2-Amino-5-phosphonopentanoic acid],scaled lipid accumulation score,[3],inactive: 0.148
NC(CCCP(=O)(O)O)C(=O)O (configuration not stated),scaled lipid accumulation score,[3],inactive: 0.024
"COc1cc(F)c(F)c(Nc2ccc(I)cc2F)c1NS(=O)(=O)C1(C[C@H](O)CO)CC1 [Refametinib (RDEA119, Bay 86-9766)]",scaled lipid accumulation score,[2],inactive: ≤ 0
same,scaled lipid accumulation score,[3],inactive: ≤ 0
CC(C)n1cnc2c(NCc3ccccc3)nc(NCCO)nc21 [N9-Isopropylolomoucine],scaled lipid accumulation score,library stock concentration: 15.3 mM,inactive: ≤ -0.012
CC(C)CCN1C(=O)N(CCN(C)C)C(=O)C12CCN(Cc1cn(C)c3ccccc13)CC2,scaled lipid accumulation score,[3],active: 0.692
C[C@H](NC[C@H](O)CP(=O)(O)CC1CCCCC1)c1ccc(Cl)c(Cl)c1,scaled lipid accumulation score,[3],inactive: ≤ -0.006
Cc1occc(=O)c1O,scaled lipid accumulation score,[3],inactive: ≤ 0
Cn1c(=O)n(-c2ccc(C(C)(C)C#N)cc2)c2c3cc(-c4cnc5ccccc5c4)ccc3ncc21,scaled lipid accumulation score,[4],inactive: ≤ 0
same,scaled lipid accumulation score,[5],inactive: ≤ -0.016
same,scaled lipid accumulation score,[6],inactive: ≤ -0.016
same,scaled lipid accumulation score,[3],inactive: ≤ -0.016
